# Measured values: PubChem BioAssay AID1745853 (National Center for Advancing Translational Sciences (NCATS), 2022)
# “And” between values parts separate entries of the source, which are not always exact repeats. Equal values may be shown once. The list shows a part of the results. The main result of the screen is listed elsewhere. These columns were measured beside it and carry no call.
# Tests used:
# Experiment in all cases: Primary Screen for Target Class Profiling of Small Molecule Inhibitors of Methyltransferases
# [1] = biological target: Glycine N-methyltransferase (Homo sapiens) (UniProt Q14749); settings: purified enzyme, MTase-Glo SAH luminescence; measured here: GNMT inhibition; at 40 µM; stronger effect = lower value
# How it was run: (§1)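 Each enzyme was reacted with SAM and its substrate, with compounds tested once at 40 uM; SAH formed was read by MTase-Glo luminescence.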
# [2] = biological target: Guanidinoacetate N-methyltransferase (Homo sapiens) (UniProt Q14353); settings: purified enzyme, MTase-Glo SAH luminescence; measured here: GAMT inhibition; at 40 µM; stronger effect = lower value
# How it was run: as §1
# [3] = biological target: Histamine N-methyltransferase (Homo sapiens) (UniProt P50135); settings: purified enzyme, MTase-Glo SAH luminescence; measured here: HNMT inhibition; at 40 µM; stronger effect = lower value
# How it was run: as §1
# [4] = biological target: Nicotinamide N-methyltransferase (Homo sapiens) (UniProt P40261); settings: purified enzyme, MTase-Glo SAH luminescence; measured here: NNMT inhibition; at 40 µM; stronger effect = lower value
# How it was run: as §1
# [5] = biological target: Phenylethanolamine N-methyltransferase (Homo sapiens) (UniProt P11086); settings: purified enzyme, MTase-Glo SAH luminescence; measured here: PNMT inhibition; at 40 µM; stronger effect = lower value
# How it was run: as §1
# % is scaled to controls: 0 for no effect and ±100 for the full control effect.
Structure (SMILES),"activity change, negative = inhibition [1] [%]","activity change, negative = inhibition [2]","activity change, negative = inhibition [3] [%]","activity change, negative = inhibition [4]","activity change, negative = inhibition [5]"
O=C(NCc1nnc2cc(-c3nc(C4CC4)no3)ccn12)c1nccc2ccccc12,-4.5,-6.14%,-2.99,-8.14%,-0.912%
O=C(CSc1nnc2n(Cc3ccc(F)cc3)c(=O)c3ccccc3n12)Nc1ccc(Cl)cc1,3.31,0.769%,8.72,1.62%,2.44%
Cn1cnc(S(=O)(=O)N2CCCN(C(=O)c3nccn3C)CCNC(=O)CC2c2ccccc2)c1 (stereo not drawn),-1.39,2.23%,1.56,-1.28%,2.08%
Cn1c(=O)c2ccc(C(=O)NC3CCCCC3)cc2n2c(SCC(=O)Nc3ccccc3F)nnc12,-3.48,0%,-2.5,-1.5%,-0.573%
COc1ccc(-c2cc3n(n2)CC(C)(C(=O)NCc2ccccc2OC)N(CCc2cccs2)C3=O)cc1 (stereo not drawn),0.558,5.51%,-3.88,3.29%,-2.42%
CCOc1ccc(CNC(=O)CCn2ccc3cc(S(=O)(=O)N4CCCCC4)ccc32)cc1,6.51,0.735%,3.61,2.36%,2.3%
NC(=O)COc1ccc(C(=O)N[C@@H]2CN(Cc3ccccn3)CCC[C@H]2O)cc1,-9.61,-7.06%,-14.7,-10.5%,-9.22%
O=C(Cn1cc(C(F)(F)F)ccc1=O)N1CCC2(CCCNC2=O)C1 (stereo not drawn),-0.48,-0.232%,1.64,1.18%,2.07%
CC(=O)c1ccc(O[C@@H]2O[C@H](CO)[C@@H](O)[C@H](O)[C@H]2O)cc1,3.45,0.392%,4.45,-9.31%,-8.08%
Cc1noc(C)c1-c1cc(-c2ccc(CN(C)C)cc2)cn2cncc12,-22.3,-3.53%,-74.2,-9.36%,-22.7%
CNC(=O)c1cc(C2CC2)nc2onc(C3CCCN(C(=O)c4ccccc4OC)C3)c12 (stereo not drawn),-2.03,0.768%,1.25,-6.55%,0.105%
CC(C)N1C[C@@H]2OCC(=O)N(Cc3ccccc3)[C@@H]2C1,-5.92,-5.87%,-4.93,-5.59%,-1.39%
O=C(CC1CCOCC1)Nc1ccc(N2CCOCC2)cc1,1.76,-0.854%,2.26,0.692%,-3.82%
C=C1C(=O)OC2CC3(C)C(O)C(=O)C=C(C)C3CC12 (stereo not drawn),-3.29,4.64%,6.43,-6.51%,7.95%
COc1ccccc1CNC(=O)C1(C)Cn2c(cc3ccccc32)C(=O)N1Cc1ccccc1Cl (stereo not drawn),-6.07,-0.612%,-9.04,-15.3%,-9.37%
CC(C)=CCC[C@](C)(O)[C@H]1CC[C@]2(C)[C@@H]1[C@H](O)CC1[C@@]3(C)CC[C@H](O)C(C)(C)C3[C@@H](O[C@@H]3O[C@H](CO)[C@@H](O)[C@H](O)[C@H]3O[C@@H]3OC[C@@H](O)[C@H](O)[C@H]3O)C[C@]12C (stereo partly drawn),4.69,4.76%,10.3,-7.06%,2.04%
CN1C(=O)c2cc(C(=O)NCCCN3CCCCC3)nn2CC1(C)C(=O)NCc1ccccc1 (stereo not drawn),5.59,1.82%,1.83,5.54%,4.19%
COc1cccc(CN2C(=O)c3cc(-c4ccco4)nn3CC2(C)C(=O)NC2CCCCCC2)c1 (stereo not drawn),-3.73,2.45%,-2.88,-13.9%,-6.47%
COc1cccc(N2C(=O)c3cc4sccc4n3CC2(C)C(=O)NC2CCCCCC2)c1 (stereo not drawn),1.52,-1.83%,3.9,-2.23%,0.007%
CC(NC(=O)C1CCCN(c2cnc3nccnc3c2)C1)c1cccnc1 (stereo not drawn),-6.83,-5.48%,-4.43,-16.4%,-5.46%

Structure (SMILES),"activity change, negative = inhibition [1] [%]","activity change, negative = inhibition [2]","activity change, negative = inhibition [3] [%]","activity change, negative = inhibition [4]","activity change, negative = inhibition [5]"
CCNC(=O)Nc1ccc(OCC(=O)N2CCN(c3ccccn3)CC2)nc1,-3.92,2.68%,0.693,-2.64%,9.96%
CC(=O)Nc1ccccc1NC(=O)CN1CCN(Cc2ncccc2C)CC1,-4.21,-10.2%,-3.13,-7.56%,-0.109%
COCc1ncc(C)n1C1CCCN(C(=O)CCCc2ccccc2)C1 (stereo not drawn),-3.42,-1.94%,-1.3,-3.95%,3.12%
CC1CCCC(O)CCC/C=C/c2cc(OS(=O)(=O)O)cc(O)c2C(=O)O1 (stereo not drawn),-36.5,-5.74%,-45.4,-18.9%,-17.9%
COCCNC(=O)c1cc2n(n1)CC(C)(C(=O)NCc1ccccc1)N(C)C2=O (stereo not drawn),3.66,3.88%,-1.83,4.51%,-0.932%
Cc1ccc(Cl)cc1NC(=O)Cn1nc2n(CC(C)C)c(=O)c3ccccc3n2c1=O,-4.11,1.29%,-1.52,-8.33%,-6.1%
CC(=O)NC1CC2(CCN(Cc3ccc(O)cc3)CC2)c2ccccc21 (stereo not drawn),-6.55,-6.36%,-51.9,-13.6%,-13.2%
COc1ccc(C2(N(C)C(=O)c3ccc(NC(=O)c4ccco4)cc3)CCOCC2)cc1,-6.24,-10.3%,1.53,-23.4%,-14.8%
Cc1ccc(Cn2c(=O)c3ccccc3n3c(CCC(=O)NCCCOC(C)C)nnc23)cc1,-5.85,4.47%,3.08,9.06%,-4.22%
CCCn1c(=O)c2ccc(Cl)cc2n2c(=O)n(CC(=O)Nc3ccc(C)cc3Cl)nc12,-0.172,0.445%,0.703,-5.08%,-3.28%
O=C(NCCO)c1cccc(-c2cc(Nc3ccc(OC(F)(F)F)cc3)ncn2)c1,-7.21,10.2%,0.046,-20.1%,-11.1%
Cc1ccc(NC(=O)CN(C)S(=O)(=O)c2ccc3[nH]c4c(c3c2)CCCC4)nc1,-2.5,-1.55%,-3.95,-7.25%,-7.34%
CCOC(=O)C1CCN(C(=O)CN(C)S(=O)(=O)c2ccc3c(c2)CC(C)N3C(C)=O)CC1 (stereo not drawn),3.92,3.81%,3.58,-0.659%,0.392%
CCCCN(C)C(=O)c1c(C)sc2ccn(CCC)c(=O)c12,-74.9,-36.9%,-0.372,-7.08%,-18.3%
Cc1cc2c(cc1S(=O)(=O)NCc1ccc(F)cc1)n(C)c(=O)n2C,7.02,0%,4.04,2.78%,4.18%
CC(C)CCNC(=O)C1(C)Cn2nc(C(=O)NC3CCCC3)cc2C(=O)N1C (stereo not drawn),3.39,0%,5.54,6.59%,4.51%
CC1(C(=O)NC2CCCCCCC2)Cn2c(ccc2-c2ccco2)C(=O)N1Cc1cccc(Cl)c1 (stereo not drawn),-1.47,0%,1.88,-10.1%,-1.75%
COc1cccc(NC(=O)CSc2nnc3[nH]c(=O)c(C)nn23)c1,12.7,0%,10.1,2.89%,5.48%
CN(C)C(=O)[C@]12CCCC[C@@H]1N(CCc1ccccc1)C(=O)CC2,-1.49,-3.2%,-1.35,-4.49%,-2.26%
Cc1ccnn1CCC(=O)N1CCOC(Cc2ccc(F)cc2)C1 (stereo not drawn),-0.333,-2.3%,2.17,2.48%,3.37%

Structure (SMILES),"activity change, negative = inhibition [1] [%]","activity change, negative = inhibition [2]","activity change, negative = inhibition [3] [%]","activity change, negative = inhibition [4]","activity change, negative = inhibition [5]"
Nc1ncnc2c1c(-c1ccc(Oc3ccccc3)cc1)cn2C1CCCC1,-16.5,-3.23% and 11%,-12.4,-37.5% and -33.6%,-33.5% and -33.8%
COc1cccc(N2CCN(C(=O)CCn3ccn4nc5c(c4c3=O)CCCC5)CC2)c1,-3.1,0.663%,-2.84,-5.54%,4.07%
Cc1ccc(CNC(=O)C2(C)Cn3cnc(C(=O)NCc4ccccc4Cl)c3C(=O)N2C2CC2)cc1 (stereo not drawn),-5.21,0%,3.67,-8.95%,-1.19%
CCOC(=O)c1cc2n(n1)CC(C)(C(=O)NC1CCC(C)CC1)N(c1ccc(C)cc1C)C2=O (stereo not drawn),7.48,0%,8.04,2.89%,3.78%
COc1ccccc1Nc1ncc2c(n1)CN(C(=O)c1ccnn1C)CCN2,-5.96,-6.02%,-2.91,-8.87%,-4.03%
O=C(CCCn1nc(-c2ccccc2)c2ccccc21)N1CCN(c2ccccc2)CC1,-1.44,5.52%,3.69,3.65%,-0.994%
COCCCN1C(=O)c2ccc(-c3ccco3)n2CC1(C)C(=O)NC1CCCCC1C (stereo not drawn),3.86,0.182%,3.34,5.71%,2.51%
O=C(CCl)N1CCC2(CC1)CC(c1cccc(C(F)(F)F)c1)=NO2,-6.43,-4.53%,-0.579,-12.5%,-21%
CCn1nccc1C(=O)N1CC[C@@H]2CN(Cc3ccccc3)[C@@H]2C1,-0.446,-3.76%,-0.438,-5.14%,-8.21%
CC(C)CNC(=O)c1ccc2c(=O)n(Cc3ccccc3)c3nn(CC(=O)NC(C)(C)C)c(=O)n3c2c1,2.93,4.43%,4.66,0.972%,3.27%
CC(C)(O)C1CC=C(C(=O)OC[C@H]2O[C@@H](Oc3cc(C(=O)O)cc(O)c3O)[C@H](O)[C@@H](O)[C@@H]2O)CC1 (stereo partly drawn),0,5.2%,2.54,-9.37%,4.49%
CC1CCN(C(c2ccc(F)cc2)c2ccc(C(C)C(=O)O)cc2-c2ccc(C(F)(F)F)cc2)CC1 (stereo not drawn),-11.2,-4.78%,6.34,-78.1%,-4.67%
O=C1CCCC2=C1C1(CCCC1)N=C(Nc1nc3ccccc3o1)N2,,-6.8%,,-19.4%,-7.3%
Cc1ccc(-n2nc(C)c([C@H]3C=C[C@@H](OC(=O)Nc4ccc(C(C)C)cc4)C3)c2C)cc1Cl,-4.17,-7.67%,-2.05,-5.72%,-6.71%
CN(C)S(=O)(=O)N1C[C@@H](Oc2cccnc2)C[C@H]1C(=O)N1CCOCC1,-6.27,-3.72%,-0.717,-5.93%,-5.09%
Cc1cc(-c2nncc3c(C(C)(C)C)c(OCc4ncnn4C)nn23)no1,-4.95,4.95%,-1.84,-13.6%,-0.181%
c1ccc(N2CCCC(c3nccn3Cc3ccncc3)C2)nc1 (stereo not drawn),-3.42,-2.29%,1.92,-7.7%,-4.18%
O=C(O)c1ccnc(-c2ccnc(NCC(O)c3ccccc3Cl)n2)c1 (stereo not drawn),-6.74,-9.27%,-10.2,-11.7%,-14.7%
O=C(CSc1nnc2n(CCc3ccccc3)c(=O)c3ccccc3n12)NC1CCCCC1,-1.21,0%,4.8,-11.8%,0.199%
CC1CCC(NC(=O)C2(C)Cn3c(cc4occc43)C(=O)N2Cc2cccc(Br)c2)CC1 (stereo not drawn),-0.694,0.152%,5.76,-8.19%,2.34%
